The supplement of paper PMC4967469
By IC50 is meant the dose at which the fit gives 50% viability; a limit (>, <) means that the fit lies beyond the doses tested. AUC is the area under the same curve over the 256-fold range up to the top dose, as a fraction; the more sensitive the line, the further below 1. A top dose marked as inferred was calculated from the reported fits.

The cell lines below were run with Cc1ccc(-c2c(C(=O)CF)n(CCCO)c3ncnc(N)c23)cc1 [FMK] (assay: Viability of human cancer cell lines after 72 h of drug (GDSC screen)). Conditions: top dose inferred.
Protocol: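 Human cancer cell lines in 384-well plates, medium with 10% serum, drug for 72 h over a 256-fold dose range (nine 2-fold or five 4-fold steps up to the top dose). Adherent lines were fixed and stained with the nucleic acid dye Syto60, suspension lines read with resazurin; signal relative to control wells, capped at 0 and 100%. One two-parameter sigmoid per drug and line, fitted in a mixed model over all curves with the slope shared within a line.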

| Cell Line | AUC | IC50 [µM] |
| --- | --- | --- |
| ABC-1 (lung adenocarcinoma, adherent, top dose 20 µM) | 0.978 | > 20 |
| ACHN (kidney, adherent, top dose 20 µM) | 0.947 | > 20 |
| AGS (stomach, adherent, top dose 20 µM) | 0.989 | > 20 |
| ALL-PO (lymphoblastic leukaemia, suspension, top dose 20 µM) | 0.877 | > 20 |
| ALL-SIL (T-cell leukaemia, suspension, top dose 20 µM) | 0.896 | 18.6 |
| AM-38 (glioma, semi-adherent, top dose 20 µM) | 0.971 | > 20 |
| AMO-1 (haematopoietic neoplasm, suspension, top dose 20 µM) | 0.978 | > 20 |
| ARH-77 (myeloma, suspension, top dose 20 µM) | 0.971 | > 20 |
| ASH-3 (thyroid, adherent, top dose 10.24 µM) | 0.988 | > 10.2 |
| ATN-1 (T-cell lymphoblastic leukaemia, suspension, top dose 20 µM) | 0.926 | > 20 |
| AU565 (breast, adherent, top dose 20 µM) | 0.978 | > 20 |
| AsPC-1 (pancreas, adherent, top dose 20 µM) | 0.877 | > 20 |
| BB30-HNC (head and neck, adherent, top dose 20 µM) | 0.982 | > 20 |
| BB49-HNC (head and neck, adherent, top dose 20 µM) | 0.834 | > 20 |
| BB65-RCC (kidney, adherent, top dose 20 µM) | 0.983 | > 20 |
| BC-1 (B-cell lymphoma, suspension, top dose 20 µM) | 0.988 | > 20 |
| BC-3 (B-cell lymphoma, suspension, top dose 20 µM) | 0.989 | > 20 |
| BE2-M17 (neuroblastoma, adherent, top dose 20 µM) | 0.984 | > 20 |
| BE-13 (lymphoblastic leukaemia, suspension, top dose 20 µM) | 0.96 | > 20 |
| BEN (non-small cell lung carcinoma, adherent, top dose 20 µM) | 0.984 | > 20 |
| BFTC-905 (bladder, adherent, top dose 20 µM) | 0.99 | > 20 |

| Cell Line | AUC | IC50 [µM] |
| --- | --- | --- |
| BFTC-909 (kidney, adherent, top dose 20 µM) | 0.988 | > 20 |
| BHY (head and neck, adherent, top dose 20 µM) | 0.964 | > 20 |
| BICR22 (head and neck, adherent, top dose 20 µM) | 0.98 | > 20 |
| BICR78 (head and neck, adherent, top dose 20 µM) | 0.982 | > 20 |
| BL-41 (Burkitt lymphoma, suspension, top dose 20 µM) | 0.984 | > 20 |
| BT-20 (breast, adherent, top dose 20 µM) | 0.972 | > 20 |
| BT-474 (breast, adherent, top dose 20 µM) | 0.986 | > 20 |
| BT-483 (breast, adherent, top dose 20 µM) | 0.977 | > 20 |
| BV-173 (chronic myeloid leukaemia, suspension, top dose 20 µM) | 0.967 | > 20 |
| Becker (glioma, adherent, top dose 20 µM) | 0.977 | > 20 |
| BxPC-3 (pancreas, adherent, top dose 20 µM) | 0.983 | > 20 |
| C2BBe1 (large intestine, adherent, top dose 20 µM) | 0.981 | > 20 |
| C3A (liver, adherent, top dose 20 µM) | 0.988 | > 20 |
| C32 (melanoma, adherent, top dose 20 µM) | 0.987 | > 20 |
| C-4-I (cervix, adherent, top dose 20 µM) | 0.986 | > 20 |
| C-33-A (cervix, adherent, top dose 20 µM) | 0.977 | > 20 |
| CA46 (Burkitt lymphoma, suspension, top dose 20 µM) | 0.953 | > 20 |
| CAKI-1 (kidney, adherent, top dose 20 µM) | 0.94 | > 20 |
| CAL-12T (non-small cell lung carcinoma, adherent, top dose 20 µM) | 0.975 | > 20 |
| CAL-27 (head and neck, adherent, top dose 20 µM) | 0.973 | > 20 |
| CAL-33 (head and neck, adherent, top dose 20 µM) | 0.973 | > 20 |

| Cell Line | AUC | IC50 [µM] |
| --- | --- | --- |
| CAL-39 (cervix, adherent, top dose 20 µM) | 0.985 | > 20 |
| CAL-51 (breast, adherent, top dose 20 µM) | 0.988 | > 20 |
| CAL-54 (kidney, adherent, top dose 20 µM) | 0.985 | > 20 |
| CAL-62 (thyroid, adherent, top dose 20 µM) | 0.988 | > 20 |
| CAL-72 (osteosarcoma, adherent, top dose 20 µM) | 0.983 | > 20 |
| CAL-78 (chondrosarcoma, adherent, top dose 20 µM) | 0.986 | > 20 |
| CAL-85-1 (breast, adherent, top dose 20 µM) | 0.962 | > 20 |
| CAL-120 (breast, adherent, top dose 20 µM) | 0.966 | > 20 |
| CAL-148 (breast, suspension, top dose 20 µM) | 0.99 | > 20 |
| CAMA-1 (breast, adherent, top dose 20 µM) | 0.98 | > 20 |
| CAPAN-1 (pancreas, adherent, top dose 20 µM) | 0.968 | > 20 |
| CAS-1 (glioma, adherent, top dose 20 µM) | 0.979 | > 20 |
| CCF-STTG1 (glioma, adherent, top dose 20 µM) | 0.988 | > 20 |
| CCK-81 (large intestine, adherent, top dose 20 µM) | 0.928 | > 20 |
| CCRF-CEM (lymphoblastic leukaemia, suspension, top dose 20 µM) | 0.981 | > 20 |
| CESS (acute myeloid leukaemia, suspension, top dose 20 µM) | 0.973 | > 20 |
| CFPAC-1 (pancreas, adherent, top dose 10.24 µM) | 0.895 | > 10.2 |
| CHL-1 (melanoma, adherent, top dose 20 µM) | 0.986 | > 20 |
| CHP-212 (neuroblastoma, adherent, top dose 20 µM) | 0.905 | > 20 |
| CHSA0011 (chondrosarcoma, adherent, top dose 20 µM) | 0.973 | > 20 |
| CHSA0108 (chondrosarcoma, adherent, top dose 20 µM) | 0.977 | > 20 |

| Cell Line | AUC | IC50 [µM] |
| --- | --- | --- |
| CMK (acute myeloid leukaemia, suspension, top dose 20 µM) | 0.952 | > 20 |
| COLO-205 (large intestine, suspension, top dose 20 µM) | 0.988 | > 20 |
| COLO-320-HSR (large intestine, suspension, top dose 20 µM) | 0.99 | > 20 |
| COLO-668 (small cell lung carcinoma, adherent, top dose 20 µM) | 0.941 | > 20 |
| COLO-678 (large intestine, semi-adherent, top dose 20 µM) | 0.963 | > 20 |
| COLO-680N (oesophagus, adherent, top dose 20 µM) | 0.957 | > 20 |
| COLO-684 (endometrium, suspension, top dose 20 µM) | 0.976 | > 20 |
| COLO-783 (melanoma, adherent, top dose 20 µM) | 0.981 | > 20 |
| COLO-792 (melanoma, adherent, top dose 20 µM) | 0.974 | > 20 |
| COLO-800 (melanoma, adherent, top dose 20 µM) | 0.979 | > 20 |
| COLO-824 (breast, adherent, top dose 20 µM) | 0.986 | > 20 |
| COR-L23 (large cell lung carcinoma, adherent, top dose 20 µM) | 0.968 | > 20 |
| COR-L88 (small cell lung carcinoma, adherent, top dose 20 µM) | 0.983 | > 20 |
| COR-L95 (small cell lung carcinoma, adherent, top dose 20 µM) | 0.972 | > 20 |
| COR-L105 (lung adenocarcinoma, adherent, top dose 20 µM) | 0.934 | > 20 |
| COR-L279 (small cell lung carcinoma, suspension, top dose 20 µM) | 0.99 | > 20 |
| CP50-MEL-B (melanoma, adherent, top dose 20 µM) | 0.986 | > 20 |
| CP66-MEL (melanoma, adherent, top dose 20 µM) | 0.983 | > 20 |
